Reference: the supplement of paper PMC3334620
Whole data set: some 33,000 sequences, median “E-score (-0.5 to 0.5)” near -0.036, cut for the highest 2% near 0.37. Some of the results follow.

Biological target: T1, Yer064c (UniProt P40041)
T1 sequence: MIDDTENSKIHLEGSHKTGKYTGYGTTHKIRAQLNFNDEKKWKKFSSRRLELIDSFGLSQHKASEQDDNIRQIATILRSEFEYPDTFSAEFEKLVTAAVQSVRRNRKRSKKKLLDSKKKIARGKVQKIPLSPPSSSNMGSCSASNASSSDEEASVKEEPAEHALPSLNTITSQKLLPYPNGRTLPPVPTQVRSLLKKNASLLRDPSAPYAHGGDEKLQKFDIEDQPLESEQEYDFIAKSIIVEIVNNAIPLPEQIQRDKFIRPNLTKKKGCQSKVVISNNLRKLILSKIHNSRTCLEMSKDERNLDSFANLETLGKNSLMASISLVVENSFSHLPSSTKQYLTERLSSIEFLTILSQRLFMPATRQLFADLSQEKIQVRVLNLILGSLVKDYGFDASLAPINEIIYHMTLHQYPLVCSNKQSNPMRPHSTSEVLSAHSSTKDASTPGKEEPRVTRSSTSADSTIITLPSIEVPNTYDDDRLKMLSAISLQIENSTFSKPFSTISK
Assay: PBM E-score (8-mer binding enrichment) (E-score (-0.5 to 0.5)); higher = stronger / more preferred TF binding; most listed sequences are background and not binding sites
Conditions: protein concentration: 200 nM; construct: GST-full length
Description: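 Universal 'all 10-mer' protein binding microarrays (Agilent AMADID 015681) probed with GST-tagged S. cerevisiae TFs (full-length or DBD) made by in vitro transcription/translation (PURExpress), about 100-200 nM. Bound TF was detected with fluorescent anti-GST. Each ungapped 8-mer (which stands for itself and its reverse complement) is scored by the PBM enrichment score (E-score), a modified Wilcoxon-Mann-Whitney statistic from -0.5 to +0.5, computed with the Universal PBM Analysis Suite. Scale: above 0.35 generally sequence-specific binding.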

Row | Sequence | PBM E-score
1 | TGGCACAA | -0.0821
2 | ATAACTGA | 0.107
3 | GTTGAAAC | 0.0907
4 | ACATTACT | -0.0427
5 | GAGTAATA | 0.197
6 | AGACTCTC | 0.334
7 | CCATTAAC | 0.0891
8 | TCGTGGAA | 0.0989
9 | CGAGATTA | 0.237
10 | AAGAAGCC | -0.146
11 | AACGTCAT | 0.127
12 | AGTTAGGC | -0.0789
13 | AGCATCAA | -0.0111
14 | ACGTCCGG | -0.217
15 | CACTTGTC | -0.132
16 | GGGCTTTA | -0.14
17 | ACGCTGAA | -0.0153
18 | GCGCCTCC | -0.313
19 | TAACTCCA | 0.157
20 | CTAGCCGA | -0.156
21 | AAGACCGT | -0.144
22 | GTCCAACA | -0.0169
23 | CTTATGGC | 0.0753
24 | CTCGCTGC | -0.0548
25 | AGTCCCGA | 0.00924

Row | Sequence | PBM E-score
26 | ACCTAAGG | -0.308
27 | ATGGGATG | -0.112
28 | CTGGCACA | -0.202
29 | ATTTTCGC | -0.131
30 | AATAGCAC | -0.194
31 | GCGTAGTA | -0.118
32 | CAAATGAC | 0.214
33 | GTCATCAA | 0.346
34 | AACTCAAC | 0.123
35 | GCCAGGCC | -0.198
36 | ACCTCGGA | 0.0224
37 | AAGCGAGA | -0.083
38 | GACCCGGC | -0.189
39 | GCGGCACA | -0.125
40 | CACGTTGA | 0.136
41 | GGTTCGGA | -0.157
42 | TCTACAGA | 0.0215
43 | ATTTAACC | 0.232
44 | GTTTAGCA | -0.0742
45 | AGCAAACG | -0.133
46 | ATGAGCGA | 0.215
47 | AACAACTA | 0.0556
48 | TCCAGCGA | -0.102
49 | GCAACTAC | -0.0606
50 | CGAGGAGC | -0.00253

Row | Sequence | PBM E-score
51 | TAGAACAA | -0.0456
52 | CACGACTA | 0.403
53 | GCTAGCCA | -0.107
54 | GTTACCGA | -0.0297
55 | CTCTATGC | -0.0535
56 | CACGGGCC | -0.297
57 | GTCCGAAC | 0.0287
58 | AGGGGCAC | -0.233
59 | CGCGTATA | -0.116
60 | CGGATTAA | 0.208
61 | CCGTGGAC | -0.173
62 | CACAAACG | 0.0911
63 | AGTTCAGG | 0.0736
64 | CGGGATAA | -0.199
65 | AGTGGACA | -0.198
66 | CCTTTGGC | -0.0726
67 | ATCTAGCG | -0.158
68 | CACCTCCG | -0.0859
69 | CACTAGAA | -0.0823
70 | CGAATTTC | -0.179
71 | CCGGCGGC | 0.0452
72 | CCACAAGA | -0.00958
73 | CACGACAC | -0.043
74 | AGACACAC | 0.0522
75 | ATAGCATG | -0.142

Row | Sequence | PBM E-score
76 | GGATAAAA | 0.0658
77 | ATGTTGTC | -0.23
78 | CGAACCCC | -0.2
79 | AGGTGCGC | -0.267
80 | CTGAACCC | 0.00071
81 | CCAACGAA | -0.0691
82 | GTACTCCA | 0.116
83 | GAATTCTA | 0.0224
84 | GAAGTTCC | -0.18
85 | GCGACAAC | 0.0736
86 | AAGTAACC | 0.0622
87 | ATGCGTCA | -0.123
88 | GCCTAATA | -0.216
89 | TAGACCGA | 0.0897
90 | CCTCATTC | -0.176
91 | CTATAAAA | 0.0973
92 | ATCGTATG | 0.0471
93 | CCTTCCCA | -0.0175
94 | AGTGGGAT | -0.114
95 | AAGACCCA | -0.0256
96 | GCACACGC | -0.298
97 | AAATAACA | -0.0589
98 | CTAATACA | -0.0303
99 | TAATCTAA | 0.266
100 | GATACGGC | -0.289

Row | Sequence | PBM E-score
101 | CCAGAAGC | -0.233
102 | ATAGCCCC | -0.305
103 | GCCAAGCA | -0.143
104 | CAGATCAA | -0.0706
105 | CCATCAAA | -0.12
106 | GTATCATA | 0.0771
107 | CTGGACTC | 0.307
108 | AAGCCTTC | -0.121
109 | CGGTGAAG | 0.156
110 | ACGTCAGA | -0.0241
111 | CAAGTCGC | 0.245
112 | CCATCTCA | 0.00615
113 | ACCTTCAA | 0.0218
114 | ACGAGCAC | 0.0531
115 | AGAAATTG | 0.0708
116 | GGCCTATA | -0.188
117 | CCATCGCA | 0.0533
118 | CTACTCTC | 0.0436
119 | ATACGCTC | -0.031
120 | AATTTTAG | 0.0832
121 | AGTGCGGC | -0.232
122 | CGTTGGTC | -0.191
123 | CCTTTCGC | -0.295
124 | ACTCCTAT | 0.21
125 | CACCGTAG | -0.0709

Row | Sequence | PBM E-score
126 | CGGGTACA | -0.124
127 | CGCCCGCG | -0.224
128 | GACCCGAC | -0.0481
129 | TATCATGA | 0.256
130 | ACCTAGAA | 0.128
131 | CCAAACGG | -0.104
132 | ACCTTATA | -0.0676
133 | GCCTTCCA | -0.273
134 | ATTTATAC | 0.147
135 | AATTGGCC | -0.139
136 | AGCCGGAC | -0.107
137 | CGCAGGTA | -0.0757
138 | CGCCCCCC | -0.436
139 | GGGGAGAA | -0.196
140 | CCGGTTAA | -0.0828
141 | CGTTACTC | 0.126
142 | GTAAAGTA | 0.0602
143 | GCACGACC | -0.0623
144 | CCAATGTA | -0.0744
145 | AACCAGAG | 0.052
146 | CAAGTGTC | -0.0823
147 | ATTCCCTC | -0.0751
148 | AAGCGGGT | -0.0832
149 | GAACAGAA | -0.069
150 | CCTTAAGA | -0.106

Row | Sequence | PBM E-score
151 | ATATAGAG | -0.14
152 | CAGAATCG | 0.136
153 | ACCTCCTA | -0.134
154 | AGTTACAC | 0.16
155 | GCAGGATA | -0.26
156 | AGTTGGAT | 0.12
157 | CGACATAC | -0.191
158 | GACGGCAC | -0.272
159 | CGCAGTGC | -0.146
160 | TCAACAGA | 0.211
161 | ACGTATCG | -0.166
162 | AGCGAGAA | -0.0575
163 | ACGTGCTC | -0.13
164 | ATACTAAC | -0.0724
165 | ACGGCTCA | 0.195
166 | CAGAAGCA | -0.184
167 | ACGTACTG | -0.00633
168 | CCCGGGCG | -0.0727
169 | CACGTAGG | -0.0596
170 | CGGAATTC | -0.207
171 | CTTATTAC | 0.0573
172 | ACCGTGCC | -0.124
173 | ACTGCTGG | -0.0181
174 | CGTGCACC | -0.309
175 | GATCACCC | 0.00825

Row | Sequence | PBM E-score
176 | CTGCGAGA | 0.0231
177 | ACCTACTG | -0.201
178 | ACAATTCA | -0.0189
179 | ACACCTGC | -0.074
180 | ATGTATTC | -0.0916
181 | TCCTGTAA | 0.181
182 | CTCGGCCA | -0.0584
183 | AAAGTTTG | 0.0334
184 | ATACAGCG | -0.165
185 | CTTATAAC | -0.0131
186 | ACGAGTAA | 0.0578
187 | GCTCAGTA | 0.159
188 | CTACCCAC | -0.00457
189 | CTGTCAAA | 0.0473
190 | ATAGGCAT | -0.259
191 | ACTACTAT | 0.188
192 | GTCACACA | 0.267
193 | GATGGCGC | -0.261
194 | CGTGGATC | -0.145
195 | ACGTAAGA | 0.162
196 | GACTCGAA | 0.396
197 | TAATTCAA | 0.14
198 | ATCGGGCC | -0.333
199 | GCGAGTCC | 0.262
200 | CTGTCGCC | -0.328

Row | Sequence | PBM E-score
201 | CTTGAGCC | 0.0632
202 | AATCAACA | 0.291
203 | CGCCTGGA | 0.00101
204 | GAGCTCTA | -0.181
205 | ACATCTAG | -0.0496
206 | CTTCATAC | -0.00264
207 | ATCAACAC | 0.261
208 | CTGAAAGA | 0.122
209 | CCGTGCGA | 0.132
210 | TCTAGACA | 0.128
211 | AAGCAGAC | -0.153
212 | AGTGGAAA | -0.0554
213 | CGAGACCG | -0.236
214 | GGCAATAC | -0.108
215 | GCCTTCGA | -0.202
216 | ACCATGGC | 0.0965
217 | AAAAGATA | -0.0154
218 | CCATCCCG | -0.127
219 | CTTATCCA | 0.116
